Among all 46,000 compounds or so, about 60 (0.1%) were called active. Another 3% or so got no clear call; they are omitted. Calls come from the whole dose curve; as a rule, active = well fitted inhibition curve with a large enough effect; inconclusive = small, poorly fitted or top-dose-only effect; inactive = no such curve, though single readings can be large or run the other way. This is one part of the list.
Experiment: Primary qHTS assay for Inhibitors of ovarian cancer metastasis using an organotypic tumor microenvironment (TME) model.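 For activity change, negative = inhibition: plate controls were DMSO wells for no effect and tomatine positive control wells for full effect.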 Note: nearly all actives have a fitted effect of over 65% in size.
Conditions: SKOV3ip1-GFP adhesion/invasion on 3D omental model, fluorescence; series mostly up to 45.8 µM; activity change, negative = inhibition: at the top concentration
Outline: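 qHTS, 4-pt dose (0.36-46 umol/L); SKOV3ip1-GFP, 1,200 cells/well, no FBS; primary omental fibroblast/mesothelial co-culture 48 h pre-grown; 2 h RT + 16 h 37 C; PBS wash, 4% PFA; GFP count 488/509 nm.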

outcome, inactive:
Cc1ccc(C)c(N2CCN(C(=O)C3CCN(C(=O)c4cc5sccc5n4C)CC3)CC2)c1, CCOC(=O)N1CCc2c(sc3c2c(=O)n(Cc2ccccc2)c(=O)n3CC(=O)Nc2cccc(C)c2)C1, Cc1ccc(C)c(NC(=O)CCCn2c(C)c3cnn(-c4ccccc4)c(=O)c3c2C)c1, Cc1cc(C)c2c(n1)SCC(=O)N2CC(=O)Nc1ccccc1C

Activity change, negative = inhibition, inactive:
COc1cc2c(cc1NC(=O)COc1ccc(Br)cc1C)oc1ccccc12 2.87%, Cc1ccc(CNC(=O)c2ccc3c(c2)NC(=O)C(CS(=O)(=O)Cc2ccc(F)cc2)N3)cc1 (stereo unspecified) 9.68%, CN(C)c1cccc(C(=O)Nc2nc3ccc(S(=O)(=O)NC(C)(C)C)cc3s2)c1 -13.9%, O=C(c1ccccc1)c1ccc2nc(N3CCN(c4ccccc4)CC3)c3nncn3c2c1 -2.76%, Cc1cc2c(cc1S(=O)(=O)NCc1ccccc1)OCC(=O)N2 -1.81%, COc1ccc(NC(=O)CCCSc2nc(-c3ccco3)cc(C(F)(F)F)n2)cc1 2.95%, COc1ccccc1C(=O)Nc1c(C(=O)N2CCN(c3ccccc3F)CC2)oc2ccccc12 27.6%, Cc1nc2ccc(S(=O)(=O)CCC(=O)Nc3ccc(C(C)C)cc3)cc2s1 -9.59%, CCC1CCCCN1CCCNC(=O)c1cn(CC)c2ccc(S(=O)(=O)N(C)C3CCCCC3)cc2c1=O (stereo unspecified) 46.8%, CC(C)(C)c1ccc(C(=O)Nc2ccc(C(=O)OCc3cc(=O)n4ccsc4n3)cc2)cc1 -8.87%, Cc1ccc(CNC(=O)C2(c3cccs3)CCOCC2)cc1 3.45%, COc1ccc(-c2cn3c(n2)sc2cc(C(=O)Nc4c(C)cccc4C)ccc23)cc1 -1.63%, Cc1cc(C)cc(Nc2nc3ccccc3nc2-n2nc(C)cc2C)c1 4.71%, COC(=O)c1sc(-c2ccccc2)cc1NC(=O)Nc1ccccc1Cl -20.9%, CCc1ccc(NC(=O)c2cc3c(COC(C)=O)cnc(C)c3oc2=O)cc1 1.11%, CCOc1ccc(NC(=O)CSc2ncnc3c2sc2ccccc23)cc1 -7.01%, CCCCC(=O)Nc1cc(-c2nc3cccnc3s2)ccc1C 0.621%, CCc1ccc(NC(=O)CSc2nc(C)c(C(=O)Nc3ccc(Cl)cc3)c(-c3ccc(OC)cc3)c2C#N)cc1 0.401%, Cn1c(=O)oc2cc(S(=O)(=O)N3CCCC(C(=O)NCc4ccccc4Cl)C3)ccc21 (stereo unspecified) -7.08%, COc1ccc(NC(=O)Cn2c(=O)oc3cc(Cl)ccc32)c(OC)c1 -4.98%, CNC(=O)C1CCC(Cn2c(=O)c3sccc3n(CC(=O)NCc3ccc(C)cc3)c2=O)CC1 (stereo unspecified) 0.487%, O=C(CSc1nc2c([nH]c3ccccc32)c(=O)n1-c1ccccc1)N1CCCc2ccccc21 4.61%

Source: PubChem BioAssay AID1963576 (National Center for Advancing Translational Sciences (NCATS), 2024)
